# Experimental data reported in patent US20230250147A1 (Sanofi, published 2023).
# T1: Mouse GLP-1R (mouse, UniProt O35659 22-463)
# T1 sequence (looked up): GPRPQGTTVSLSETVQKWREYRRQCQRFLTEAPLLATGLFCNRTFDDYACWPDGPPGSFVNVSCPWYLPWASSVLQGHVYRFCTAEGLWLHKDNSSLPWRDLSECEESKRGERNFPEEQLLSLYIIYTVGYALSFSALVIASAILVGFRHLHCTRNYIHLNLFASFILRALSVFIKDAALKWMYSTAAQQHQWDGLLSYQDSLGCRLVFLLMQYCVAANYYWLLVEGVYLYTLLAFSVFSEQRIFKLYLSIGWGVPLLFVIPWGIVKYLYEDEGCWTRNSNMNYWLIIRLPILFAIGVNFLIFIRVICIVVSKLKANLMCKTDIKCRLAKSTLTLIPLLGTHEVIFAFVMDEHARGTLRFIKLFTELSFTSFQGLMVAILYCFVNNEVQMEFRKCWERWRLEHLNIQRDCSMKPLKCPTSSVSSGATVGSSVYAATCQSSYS
# B1: GLP-1RA/FGF21 Fc fusion protein SEQ ID NO: 59 (Fc fusion)
# chain: YGEGTFTSDKSKLLEKRLAHLFIEWLIAGGHSSGKPPPKGGGGGGGSGGGGSGGGGSA[… human IgG4 Fc with changes …]GGGSGSAHPIPDSSPLLQFGGQVRQRYLYTDDACQTEAHLEIREDGTVGGAADQSPESLLQLKALKPGVIQILGVKTSRFLCQRPDGALYGSLHFDPEACSFRELLLEDGYNVYQSEAHGLPLHLPGCKSPHRDPAPRGPARFLPLPGLPPAPPEPPGILAPQPPDVGSSDPLSMVGSQGRSPSYAS
# B2: GLP-1RA/FGF21 Fc fusion protein SEQ ID NO: 60 (Fc fusion)
# chain: YGEGTFTSDKSKQLEKRLVRLFIEWLIAGGHSSGKPPPKGGGGGGGSGGGGSGGGGSA[… human IgG4 Fc with changes …]GGGSGSAHPIPDSSPLLQFGGQVRQRYLYTDDACQTEAHLEIREDGTVGGAADQSPESLLQLKALKPGVIQILGVKTSRFLCQRPDGALYGSLHFDPEACSFRELLLEDGYNVYQSEAHGLPLHLPGCKSPHRDPAPRGPARFLPLPGLPPAPPEPPGILAPQPPDVGSSDPLSMVGSQGRSPSYAS
# B3: GLP-1RA/FGF21 Fc fusion protein SEQ ID NO: 61 (Fc fusion)
# chain: YGEGTFTSDKSKQLEKRLAHLFIEWLIAGGHSSGKPPPKGGGGGGGSGGGGSGGGGSA[… human IgG4 Fc with changes …]GGGSGSAHPIPDSSPLLQFGGQVRQRYLYTDDACQTEAHLEIREDGTVGGAADQSPESLLQLKALKPGVIQILGVKTSRFLCQRPDGALYGSLHFDPEACSFRELLLEDGYNVYQSEAHGLPLHLPGCKSPHRDPAPRGPARFLPLPGLPPAPPEPPGILAPQPPDVGSSDPLSMVGSQGRSPSYAS
# B4: GLP-1RA/FGF21 Fc fusion protein SEQ ID NO: 62 (Fc fusion)
# chain: YGEGTFTSDKSKQLEKRLVRLFIEWLIKGGHSSGKPPPKGGGGGGGSGGGGSGGGGSA[… human IgG4 Fc with changes …]GGGSGSAHPIPDSSPLLQFGGQVRQRYLYTDDACQTEAHLEIREDGTVGGAADQSPESLLQLKALKPGVIQILGVKTSRFLCQRPDGALYGSLHFDPEACSFRELLLEDGYNVYQSEAHGLPLHLPGCKSPHRDPAPRGPARFLPLPGLPPAPPEPPGILAPQPPDVGSSDPLSMVGSQGRSPSYAS
# B5: GLP-1RA/FGF21 Fc fusion protein SEQ ID NO: 63 (Fc fusion)
# chain: YGEGTFTSDKSKQLEKRLAHLFIEWLIKGGHSSGKPPPKGGGGGGGSGGGGSGGGGSA[… human IgG4 Fc with changes …]GGGSGSAHPIPDSSPLLQFGGQVRQRYLYTDDACQTEAHLEIREDGTVGGAADQSPESLLQLKALKPGVIQILGVKTSRFLCQRPDGALYGSLHFDPEACSFRELLLEDGYNVYQSEAHGLPLHLPGCKSPHRDPAPRGPARFLPLPGLPPAPPEPPGILAPQPPDVGSSDPLSMVGSQGRSPSYAS
# B6: GLP-1RA/FGF21 Fc fusion protein SEQ ID NO: 64 (Fc fusion)
# chain: HTEGTFTSDKSKQLEKRLVRLFIEWLIKGGHSSGKPPPKGGGGGGGSGGGGSGGGGSA[… human IgG4 Fc with changes …]GGGSGSAHPIPDSSPLLQFGGQVRQRYLYTDDACQTEAHLEIREDGTVGGAADQSPESLLQLKALKPGVIQILGVKTSRFLCQRPDGALYGSLHFDPEACSFRELLLEDGYNVYQSEAHGLPLHLPGCKSPHRDPAPRGPARFLPLPGLPPAPPEPPGILAPQPPDVGSSDPLSMVGSQGRSPSYAS
# B7: GLP-1RA/FGF21 Fc fusion protein SEQ ID NO: 65 (Fc fusion)
# chain: HGEGTFTSDKSKQLAKRLVRLFIEWLIKGGHSSGKPPPKGGGGGGGSGGGGSGGGGSA[… human IgG4 Fc with changes …]GGGSGSAHPIPDSSPLLQFGGQVRQRYLYTDDACQTEAHLEIREDGTVGGAADQSPESLLQLKALKPGVIQILGVKTSRFLCQRPDGALYGSLHFDPEACSFRELLLEDGYNVYQSEAHGLPLHLPGCKSPHRDPAPRGPARFLPLPGLPPAPPEPPGILAPQPPDVGSSDPLSMVGSQGRSPSYAS
# B8: GLP-1RA/FGF21 Fc fusion protein SEQ ID NO: 66 (Fc fusion)
# chain: GHGEGTFTSDKSKQLEEEAVRLFIEWLKAGGPKKQRLSGGGGGGGSGGGGSGGGGSA[… human IgG4 Fc with changes …]GGGSGSAHPIPDSSPLLQFGGQVRQRYLYTDDACQTEAHLEIREDGTVGGAADQSPESLLQLKALKPGVIQILGVKTSRFLCQRPDGALYGSLHFDPEACSFRELLLEDGYNVYQSEAHGLPLHLPGCKSPHRDPAPRGPARFLPLPGLPPAPPEPPGILAPQPPDVGSSDPLSMVGSQGRSPSYAS
# B9: GLP-1RA/FGF21 Fc fusion protein SEQ ID NO: 67 (Fc fusion)
# chain: GHGEGTFTSDLSIQLEEEAVRLFIEWLLAGGPSSGKPPPKGGGGGGGSGGGGSGGGGSA[… human IgG4 Fc with changes …]GGGSGSAHPIPDSSPLLQFGGQVRQRYLYTDDACQTEAHLEIREDGTVGGAADQSPESLLQLKALKPGVIQILGVKTSRFLCQRPDGALYGSLHFDPEACSFRELLLEDGYNVYQSEAHGLPLHLPGCKSPHRDPAPRGPARFLPLPGLPPAPPEPPGILAPQPPDVGSSDPLSMVGSQGRSPSYAS
# B10: GLP-1RA/FGF21 Fc fusion protein SEQ ID NO: 68 (Fc fusion)
# chain: GHGEGTFTSDLSIQLEEEAVRLFIEWLLAGGPSKGKPPPKGGGGGGGSGGGGSGGGGSA[… human IgG4 Fc with changes …]GGGSGSAHPIPDSSPLLQFGGQVRQRYLYTDDACQTEAHLEIREDGTVGGAADQSPESLLQLKALKPGVIQILGVKTSRFLCQRPDGALYGSLHFDPEACSFRELLLEDGYNVYQSEAHGLPLHLPGCKSPHRDPAPRGPARFLPLPGLPPAPPEPPGILAPQPPDVGSSDPLSMVGSQGRSPSYAS
# B11: GLP-1RA/FGF21 Fc fusion protein SEQ ID NO: 69 (Fc fusion)
# chain: GHGEGTFTSDLSIQLEEEAVRLFIEWLLAGGPSSGKPKPKGGGGGGGSGGGGSGGGGSA[… human IgG4 Fc with changes …]GGGSGSAHPIPDSSPLLQFGGQVRQRYLYTDDACQTEAHLEIREDGTVGGAADQSPESLLQLKALKPGVIQILGVKTSRFLCQRPDGALYGSLHFDPEACSFRELLLEDGYNVYQSEAHGLPLHLPGCKSPHRDPAPRGPARFLPLPGLPPAPPEPPGILAPQPPDVGSSDPLSMVGSQGRSPSYAS
# B12: GLP-1RA/FGF21 Fc fusion protein SEQ ID NO: 70 (Fc fusion)
# chain: GHGEGTFTSDLSIQLEEEAVRLFIEWLLAKGKSKGKPKPKGGGGGGGSGGGGSGGGGSA[… human IgG4 Fc with changes …]GGGSGSAHPIPDSSPLLQFGGQVRQRYLYTDDACQTEAHLEIREDGTVGGAADQSPESLLQLKALKPGVIQILGVKTSRFLCQRPDGALYGSLHFDPEACSFRELLLEDGYNVYQSEAHGLPLHLPGCKSPHRDPAPRGPARFLPLPGLPPAPPEPPGILAPQPPDVGSSDPLSMVGSQGRSPSYAS
# B13: GLP-1RA/FGF21 Fc fusion protein SEQ ID NO: 72 (Fc fusion)
# chain: HGEGTFTSDKSKQLEKRLFRLFIEWLIAGGHSSGKPPPKGGGGGGGSGGGGSGGGGSA[… human IgG4 Fc with changes …]GGGSGSAHPIPDSSPLLQFGGQVRQRYLYTDDACQTEAHLEIREDGTVGGAADQSPESLLQLKALKPGVIQILGVKTSRFLCQRPDGALYGSLHFDPEACSFRELLLEDGYNVYQSEAHGLPLHLPGCKSPHRDPAPRGPARFLPLPGLPPAPPEPPGILAPQPPDVGSSDPLSMVGSQGRSPSYAS
# B14: GLP-1RA/FGF21 Fc fusion protein SEQ ID NO: 74 (Fc fusion)
# chain: HGEGTFTSDKSKQLEKRLVILFIEWLIAGGHSSGKPPPKGGGGGGGSGGGGSGGGGSA[… human IgG4 Fc with changes …]GGGSGSAHPIPDSSPLLQFGGQVRQRYLYTDDACQTEAHLEIREDGTVGGAADQSPESLLQLKALKPGVIQILGVKTSRFLCQRPDGALYGSLHFDPEACSFRELLLEDGYNVYQSEAHGLPLHLPGCKSPHRDPAPRGPARFLPLPGLPPAPPEPPGILAPQPPDVGSSDPLSMVGSQGRSPSYAS
# B15: GLP-1RA/FGF21 Fc fusion protein SEQ ID NO: 76 (Fc fusion)
# chain: HGEGTFTSDKSKQLEKRLVRLLIEWLIAGGHSSGKPPPKGGGGGGGSGGGGSGGGGSA[… human IgG4 Fc with changes …]GGGSGSAHPIPDSSPLLQFGGQVRQRYLYTDDACQTEAHLEIREDGTVGGAADQSPESLLQLKALKPGVIQILGVKTSRFLCQRPDGALYGSLHFDPEACSFRELLLEDGYNVYQSEAHGLPLHLPGCKSPHRDPAPRGPARFLPLPGLPPAPPEPPGILAPQPPDVGSSDPLSMVGSQGRSPSYAS
# B16: GLP-1RA/FGF21 Fc fusion protein SEQ ID NO: 78 (Fc fusion)
# chain: HGEGTFTSDKSKQLEKRLVRLFYEWLIAGGHSSGKPPPKGGGGGGGSGGGGSGGGGSA[… human IgG4 Fc with changes …]GGGSGSAHPIPDSSPLLQFGGQVRQRYLYTDDACQTEAHLEIREDGTVGGAADQSPESLLQLKALKPGVIQILGVKTSRFLCQRPDGALYGSLHFDPEACSFRELLLEDGYNVYQSEAHGLPLHLPGCKSPHRDPAPRGPARFLPLPGLPPAPPEPPGILAPQPPDVGSSDPLSMVGSQGRSPSYAS
# B17: GLP-1RA/FGF21 Fc fusion protein SEQ ID NO: 79 (Fc fusion)
# chain: HGEGTFTSDKSKQLEKRLVRLFFEWLIAGGHSSGKPPPKGGGGGGGSGGGGSGGGGSA[… human IgG4 Fc with changes …]GGGSGSAHPIPDSSPLLQFGGQVRQRYLYTDDACQTEAHLEIREDGTVGGAADQSPESLLQLKALKPGVIQILGVKTSRFLCQRPDGALYGSLHFDPEACSFRELLLEDGYNVYQSEAHGLPLHLPGCKSPHRDPAPRGPARFLPLPGLPPAPPEPPGILAPQPPDVGSSDPLSMVGSQGRSPSYAS
# Molecular target: T1, Mouse GLP-1R
# Test: cell-based or functional assay
row,Binder,HTRF cAMP EC50
1,B1,0.0135 nM
2,B2,0.0117 nM
3,B3,0.043 nM
4,B4,0.0134 nM
5,B5,0.0543 nM
6,B6,0.00608 nM
7,B7,0.00663 nM
8,B8,0.011 nM
9,B9,0.0102 nM
10,B10,0.00942 nM
11,B11,0.0173 nM
12,B12,0.0831 nM
13,B13,0.0775 nM
14,B14,0.0183 nM
15,B15,0.19 nM
16,B16,0.323 nM
17,B17,2.51 nM

# Molecular target: Monkey GLP-1R (monkey)
# Test: cell-based or functional assay
row,Binder,HTRF cAMP EC50
1,B1,0.0103 nM
2,B2,0.013 nM
3,B3,0.0402 nM
4,B4,0.0129 nM
5,B5,0.0526 nM
6,B6,0.00747 nM
7,B7,0.0102 nM
8,B8,0.0314 nM
9,B9,0.0216 nM
10,B10,0.0108 nM
11,B11,0.0147 nM
12,B12,0.0388 nM
13,B13,0.025 nM
14,B14,0.0137 nM
15,B15,0.0403 nM
16,B16,0.0525 nM
17,B17,0.296 nM

# Molecular target: human glucagon-like peptide-1 (GLP-1) receptor (human, UniProt P43220 24-463)
# Test: cell-based or functional assay
row,Binder,HTRF cAMP EC50
1,B1,0.0136 nM
2,B2,0.0225 nM
3,B3,0.0683 nM
4,B4,0.0203 nM
5,B5,0.0954 nM
6,B6,0.00909 nM
7,B7,0.0165 nM
8,B8,0.0338 nM
9,B9,0.0365 nM
10,B10,0.0167 nM
11,B11,0.0153 nM
12,B12,0.0414 nM
13,B13,0.0204 nM
14,B14,0.0135 nM
15,B15,0.0392 nM
16,B16,0.051 nM
17,B17,0.243 nM
